# Measured values taken from the supplement of paper PMC4166925.
# ± gives the standard deviation of the averaged measurements. The full ranking holds about 33,000 sequences; the median of “E-score (dimensionless, -0.5 to 0.5)” is about -0.049, and the highest 2% start at about 0.37. This is one part of the list.
# Test system: T1, PmTbr T-box DNA-binding domain (GST fusion)
# T1 sequence: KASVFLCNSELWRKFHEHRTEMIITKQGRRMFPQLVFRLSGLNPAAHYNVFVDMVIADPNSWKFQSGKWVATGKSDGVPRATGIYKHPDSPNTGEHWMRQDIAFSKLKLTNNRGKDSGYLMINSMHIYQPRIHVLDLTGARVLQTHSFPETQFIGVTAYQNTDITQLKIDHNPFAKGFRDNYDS
# Test: PBM E-score of 8-mer (E-score (dimensionless, -0.5 to 0.5)); Tbr is Tbrain of the sea star Patiria miniata (Pm) or the sea urchin Strongylocentrotus purpuratus (Sp); higher = stronger binding preference; most listed sequences are background and not binding sites
# Conditions: the construct has about 5 more residues each side
# Procedure, shortened: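 Primer extension turned Universal Agilent oligonucleotide arrays double-stranded. They were incubated with 200 nM protein in PBS (pH 7.5); the protein was a GST-fused Tbr T-box DNA-binding domain expressed in BL21 E. coli at 20 °C and purified on glutathione. Every ungapped 8-mer was scored from the scanned, quantified probe intensities, and the Universal PBM Analysis Suite gave each an enrichment E-score averaged over duplicate arrays.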
row,Sequence,PBM E-score of 8-mer
1,ATAATGCG,0.0597 ± 0.019
2,GGCTCCCC,-0.236 ± 0.037
3,CGGGATAC,0.055 ± 0.02
4,AATGAGAA,-0.206 ± 0.07
5,CCTGTACC,-0.284 ± 0.025
6,CCGACAAC,0.187 ± 0.0075
7,CCTGTCAC,0.3665 ± 0.0036
8,ACCCACCT,0.0206 ± 0.039
9,AGTCGAAT,-0.207 ± 0.0076
10,AACCGTTC,0.114 ± 0.021
11,AGGTGGGC,-0.0782 ± 0.065
12,CCCGAGGG,-0.251 ± 0.11
13,GTGAAGTA,0.227 ± 0.034
14,TATAACAA,0.0224 ± 0.16
15,ATTTCGTC,-0.02 ± 0.062
16,ATTGCACA,0.0993 ± 0.033
17,CGCACGAC,0.0703 ± 0.011
18,CGGGGAGC,-0.154 ± 0.083
19,GAGAAGTA,-0.0377 ± 0.023
20,ACGCACAC,0.148 ± 0.083
21,AGTGTGAT,0.463 ± 0.0063
22,ATAAGCGA,-0.0867 ± 0.036
23,CGTCACAG,0.243 ± 0.014
24,ATGCCCAA,-0.143 ± 0.026
25,ACGCGATC,0.15 ± 0.026

row,Sequence,PBM E-score of 8-mer
1,GGCTTCAC,0.142 ± 0.014
2,GCCGATGA,-0.0983 ± 0.00081
3,CGAGGACA,-0.02 ± 0.014
4,AGTCTGAT,-0.405 ± 0.053
5,GAGACACC,0.357 ± 0.015
6,CATATAGA,-0.316 ± 0.055
7,ATCTGGTG,-0.0313 ± 0.047
8,CTAAACGA,-0.0486 ± 0.072
9,CTTCTCGA,-0.0103 ± 0.016
10,GACCTAAC,-0.00518 ± 0.0072
11,AAGTGTGT,0.34 ± 0.03
12,GGAAAGGA,-0.274 ± 0.021
13,AACGCCGG,0.0667 ± 0.0076
14,CGTCTATA,0.00289 ± 0.038
15,ACAGTAGT,0.0366 ± 0.0051
16,GCGTAGAA,-0.234 ± 0.028
17,CACGACCC,-0.0498 ± 0.00078
18,ACTGTGTG,0.264 ± 0.021
19,ATTTTTAC,0.00341 ± 0.1
20,AACCTAGT,-0.134 ± 0.038
21,ATGTTGTA,-0.0136 ± 0.035
22,AGCTGCTG,-0.0211 ± 0.086
23,CCGCCGGC,-0.0765 ± 0.057
24,CCGTCAGA,-0.193 ± 0.059
25,ACACAAAA,0.15 ± 0.021

row,Sequence,PBM E-score of 8-mer
1,CTTTCCCC,-0.0069 ± 0.077
2,ACTGAAAC,-0.0158 ± 0.016
3,ATCTGCTA,0.201 ± 0.051
4,AATGCGCG,0.0169 ± 0.054
5,GTGGTAGA,0.151 ± 0.026
6,CTCGCGCA,0.191 ± 0.024
7,ACACGCCT,0.251 ± 0.031
8,CAAGGCGG,-0.0298 ± 0.071
9,AGAAGCTA,-0.109 ± 0.0026
10,ACGTTGAC,0.299 ± 0.061
11,AATGGCAC,0.25 ± 0.027
12,GTCCCCAA,-0.071 ± 0.1
13,GCAGGTAA,-0.0867 ± 0.05
14,ATACCCAA,-0.234 ± 0.019
15,CCGTCGAC,0.12732 ± 3.5e-05
16,GCTGATAC,-0.0685 ± 0.018
17,CCCCAGGA,-0.0535 ± 0.052
18,AATGACCG,-0.0548 ± 0.032
19,ACCGGTGG,-0.072 ± 0.082
20,CCACAGAC,-0.14 ± 0.13
21,GGACTCAC,-0.241 ± 0.066
22,GAGGTCAC,0.232 ± 0.0028
23,CGACCCCC,-0.174 ± 0.039
24,ATGAACCG,0.0251 ± 0.004
25,ACGAAAGC,-0.0266 ± 0.078

row,Sequence,PBM E-score of 8-mer
1,AATCGTCG,-0.0199 ± 0.039
2,ACCTTAAG,0.106 ± 0.014
3,CCCCGAAA,-0.169 ± 0.017
4,TAATCACA,0.202 ± 0.026
5,CATAAGAG,-0.275 ± 0.024
6,AGAAGCTC,-0.0644 ± 0.03
7,AACGGTGG,-0.11 ± 0.045
8,GGAGTGCC,0.0345 ± 0.12
9,AGAGAGGG,-0.123 ± 0.025
10,CATGCAGC,-0.0211 ± 0.03
11,AAAGCTGC,0.171 ± 0.018
12,ATGCCTCG,-0.00755 ± 0.087
13,ACCGGGCA,-0.272 ± 0.0037
14,GTCAATCA,-0.0721 ± 0.032
15,AAATGTCT,-0.055 ± 0.14
16,AATGAGCC,-0.162 ± 0.056
17,ATCTTCCC,-0.114 ± 0.04
18,CCAAGATC,-0.0545 ± 0.034
19,AACCGATG,-0.0661 ± 0.043
20,GCCCGACA,0.24 ± 0.041
21,ACGATGAC,0.0176 ± 0.038
22,CGCGTCCG,0.108 ± 0.0082
23,ACTGCACG,-0.149 ± 0.031
24,CGCTCGTC,-0.284 ± 0.084
25,GATGATTA,0.123 ± 0.025

row,Sequence,PBM E-score of 8-mer
1,ACGTTTCC,0.0226 ± 0.0023
2,CGTCCGCA,0.0822 ± 0.046
3,CGCTCCAA,0.0514 ± 0.082
4,CGGAGTTA,-0.101 ± 0.024
5,GTTCTAAA,-0.324 ± 0.077
6,TCGAGGAA,-0.167 ± 0.011
7,CCCCGAGA,-0.141 ± 0.013
8,GCCTACAA,0.0283 ± 0.07
9,AACACTTG,0.408 ± 0.0044
10,CACACTTA,0.4445 ± 0.0038
11,GAGGAGTA,0.178 ± 0.028
12,GCAACGTA,-0.126 ± 0.06
13,AGTGGCTG,-0.029 ± 0.025
14,AGGCCTGA,-0.268 ± 0.039
15,CGATCCAA,4.5e-05 ± 0.057
16,ATCGAATG,-0.135 ± 0.0086
17,CTATGTAA,-0.111 ± 0.035
18,AGCACTAT,0.161 ± 0.018
19,CTAAAAGA,-0.169 ± 0.033
20,ACAACATC,0.142 ± 0.021
21,TATATTGA,-0.0295 ± 0.026
22,ATCCGATC,-0.18 ± 0.031
23,GCTTATCA,0.0322 ± 0.011
24,AATAACGC,0.1137 ± 0.00097
25,GGTGAACC,-0.0178 ± 0.006

row,Sequence,PBM E-score of 8-mer
1,CTCGTGGC,-0.0288 ± 0.011
2,CCCCGATA,-0.0781 ± 0.02
3,AGTCTATC,-0.0746 ± 0.075
4,CCCTTAAG,-0.00471 ± 0.02
5,AACGGCCT,-0.156 ± 0.042
6,CCTAAGTA,-0.102 ± 0.017
7,AGTTAGAA,-0.109 ± 0.059
8,CCGGTGTA,0.0868 ± 0.027
9,ACTCGTAC,-0.0781 ± 0.05
10,GGCTAACA,0.179 ± 0.019
11,CCAACTGG,-0.0956 ± 0.052
12,ATTAACTA,-0.0228 ± 0.0034
13,ATACCGAC,0.0515 ± 0.0048
14,ATTAATGG,-0.0771 ± 0.017
15,ATATACCA,-0.0136 ± 0.064
16,GCTGAGTA,-0.166 ± 0.026
17,TAGGTGGA,0.242 ± 0.057
18,CCATATAG,-0.37 ± 0.054
19,GGATCATA,-0.188 ± 0.072
20,AAATATAC,-0.257 ± 0.003
21,AACTAGTT,0.101 ± 0.067
22,GTTCTCCA,-0.253 ± 0.017
23,CGACCAAA,-0.223 ± 0.0098
24,CGTATGGA,-0.16 ± 0.033
25,CAGACGAC,-0.0531 ± 0.0077

row,Sequence,PBM E-score of 8-mer
1,ACGTTAGA,-0.0684 ± 0.046
2,CAAACGCC,-0.0331 ± 0.066
3,AAGTCACA,0.235 ± 0.036
4,GGTTCCCA,-0.183 ± 0.01
5,GGAATGAC,-0.107 ± 0.007
6,CGCCGTTA,-0.0338 ± 0.013
7,GTCACGAC,0.155 ± 0.035
8,ATAACCAC,-0.171 ± 0.055
9,CCCAACAG,-0.0404 ± 0.015
10,ATTGGAGC,-0.104 ± 0.081
11,AAATCAGT,-0.119 ± 0.037
12,ATGTCTAA,-0.0964 ± 0.062
13,AGTGATAC,0.227 ± 0.05
14,GAACAGGA,-0.101 ± 0.0082
15,CCTCCACA,0.233 ± 0.021
16,CAAGTTGC,0.302 ± 0.016
17,GTGCCTTA,-0.133 ± 0.015
18,AGTACCTC,-0.0546 ± 0.076
19,GTTTAACA,0.26 ± 0.034
20,GGCTTCCC,-0.112 ± 0.017
21,AGGTCGAT,0.028 ± 0.019
22,GATACGAC,0.185 ± 0.076
